Data: PMC9452587
These are yes or no findings as the source states them, for the method shown. Binding seen in cells or lysates may run through a third protein. Some entries that bind do so weakly or less than the wild type. For some of these results: Sequences can lack the tags named with a protein. Blank lines part the entries; values can stand above or below the binder they belong to.

Key:
HA-HOIP (1-864) = biological target: T1, HA-HOIP (1-864) (UniProt Q924T7); experiment: co-IP; FLAG-PP6 co-expressed with HA-Sharpin, HA-HOIP WT or truncated HA-HOIP in 293T cells for 24 h, NP-40 lysis, anti-HA beads, western blot
T1 sequence: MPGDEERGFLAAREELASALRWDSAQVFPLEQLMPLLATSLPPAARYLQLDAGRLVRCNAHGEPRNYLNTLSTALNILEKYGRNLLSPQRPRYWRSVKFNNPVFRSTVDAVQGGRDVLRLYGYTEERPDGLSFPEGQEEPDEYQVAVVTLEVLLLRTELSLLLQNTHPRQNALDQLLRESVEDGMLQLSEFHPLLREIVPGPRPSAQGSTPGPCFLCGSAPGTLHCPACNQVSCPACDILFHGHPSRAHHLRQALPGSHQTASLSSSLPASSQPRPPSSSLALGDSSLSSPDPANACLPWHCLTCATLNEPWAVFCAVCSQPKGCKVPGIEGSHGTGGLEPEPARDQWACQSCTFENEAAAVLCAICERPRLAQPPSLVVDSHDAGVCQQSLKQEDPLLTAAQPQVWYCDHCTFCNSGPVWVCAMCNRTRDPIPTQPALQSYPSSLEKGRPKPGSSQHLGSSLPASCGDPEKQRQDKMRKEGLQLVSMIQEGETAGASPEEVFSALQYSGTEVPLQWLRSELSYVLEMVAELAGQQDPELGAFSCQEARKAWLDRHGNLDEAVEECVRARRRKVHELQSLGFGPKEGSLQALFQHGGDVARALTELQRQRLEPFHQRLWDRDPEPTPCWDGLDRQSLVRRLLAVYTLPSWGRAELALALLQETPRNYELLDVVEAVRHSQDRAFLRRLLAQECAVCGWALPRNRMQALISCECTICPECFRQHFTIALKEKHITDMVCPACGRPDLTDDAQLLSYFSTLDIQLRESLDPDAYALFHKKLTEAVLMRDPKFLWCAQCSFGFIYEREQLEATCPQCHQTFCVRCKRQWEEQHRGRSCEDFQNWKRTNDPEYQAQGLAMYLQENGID

HA-HOIP (1-704) = biological target: T2, HA-HOIP (1-704) (UniProt Q924T7); experiment: as above
T2 sequence: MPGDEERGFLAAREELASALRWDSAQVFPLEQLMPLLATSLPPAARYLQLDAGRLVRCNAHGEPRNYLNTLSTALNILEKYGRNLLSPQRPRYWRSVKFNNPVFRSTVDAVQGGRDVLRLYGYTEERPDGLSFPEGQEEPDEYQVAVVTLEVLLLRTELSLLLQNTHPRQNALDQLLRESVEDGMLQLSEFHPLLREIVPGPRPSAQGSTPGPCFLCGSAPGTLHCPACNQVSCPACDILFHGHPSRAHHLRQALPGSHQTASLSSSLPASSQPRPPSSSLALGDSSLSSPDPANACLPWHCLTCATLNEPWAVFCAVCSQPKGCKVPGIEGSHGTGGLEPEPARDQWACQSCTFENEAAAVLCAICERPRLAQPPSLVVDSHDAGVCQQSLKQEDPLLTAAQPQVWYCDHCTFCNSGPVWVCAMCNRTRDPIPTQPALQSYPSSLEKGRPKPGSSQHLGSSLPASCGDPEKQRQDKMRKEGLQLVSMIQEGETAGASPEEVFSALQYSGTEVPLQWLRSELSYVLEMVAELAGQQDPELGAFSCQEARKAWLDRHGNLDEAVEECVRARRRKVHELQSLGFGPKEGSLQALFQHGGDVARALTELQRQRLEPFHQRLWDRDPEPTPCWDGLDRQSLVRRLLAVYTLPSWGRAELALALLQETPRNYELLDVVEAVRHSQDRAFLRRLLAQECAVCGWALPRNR

HA-Sharpin = biological target: T3, HA-Sharpin (UniProt Q91WA6); experiment: as above
T3 sequence: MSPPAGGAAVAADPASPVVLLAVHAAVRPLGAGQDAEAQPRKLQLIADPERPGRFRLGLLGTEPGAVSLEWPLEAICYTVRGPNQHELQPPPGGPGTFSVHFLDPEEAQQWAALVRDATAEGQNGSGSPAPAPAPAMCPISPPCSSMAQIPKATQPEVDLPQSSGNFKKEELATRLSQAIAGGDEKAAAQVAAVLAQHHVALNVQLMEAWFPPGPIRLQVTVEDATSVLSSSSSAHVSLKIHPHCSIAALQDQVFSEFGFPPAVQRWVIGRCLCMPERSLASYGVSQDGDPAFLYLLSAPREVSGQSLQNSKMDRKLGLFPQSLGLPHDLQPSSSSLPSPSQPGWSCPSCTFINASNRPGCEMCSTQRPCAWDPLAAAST

HA-HOIP (WT) = HA-HOIP (WT) (UniProt Q924T7); experiment: as above
[1] = biological target: T4, TNFR1 (mouse (endogenous in MEFs)) (UniProt P25118); experiment: co-IP; MEFs (WT, PP6 knockout and reconstituted) treated with TNFα 50 ng/ml for indicated times, NP-40 lysis, anti-TNFR1 antibody overnight at 4 °C, Protein G agarose, western blot
T4 sequence: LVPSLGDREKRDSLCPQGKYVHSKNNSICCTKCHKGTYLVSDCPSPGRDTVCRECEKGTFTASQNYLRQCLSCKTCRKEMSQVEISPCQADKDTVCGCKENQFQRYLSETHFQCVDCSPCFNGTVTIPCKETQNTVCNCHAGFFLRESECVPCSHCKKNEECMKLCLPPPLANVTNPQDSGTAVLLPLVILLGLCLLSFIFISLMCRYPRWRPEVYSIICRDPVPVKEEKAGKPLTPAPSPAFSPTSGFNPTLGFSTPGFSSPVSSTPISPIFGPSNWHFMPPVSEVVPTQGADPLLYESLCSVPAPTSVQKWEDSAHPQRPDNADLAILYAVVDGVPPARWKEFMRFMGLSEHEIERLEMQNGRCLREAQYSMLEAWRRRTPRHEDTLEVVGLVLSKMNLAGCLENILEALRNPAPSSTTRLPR

[2] = biological target: T5, RIPK1 (mouse (endogenous in MEFs)) (UniProt Q60855); experiment: proximity ligation; in situ PLA in fixed, permeabilised MEFs treated with PBS or TNFα for 30 min; anti-RIPK1 (homemade) and anti-PPP6R3 (16944-1-AP); dots counted in 20 cells a group; PPP6R3^−/− MEFs as control
T5 sequence: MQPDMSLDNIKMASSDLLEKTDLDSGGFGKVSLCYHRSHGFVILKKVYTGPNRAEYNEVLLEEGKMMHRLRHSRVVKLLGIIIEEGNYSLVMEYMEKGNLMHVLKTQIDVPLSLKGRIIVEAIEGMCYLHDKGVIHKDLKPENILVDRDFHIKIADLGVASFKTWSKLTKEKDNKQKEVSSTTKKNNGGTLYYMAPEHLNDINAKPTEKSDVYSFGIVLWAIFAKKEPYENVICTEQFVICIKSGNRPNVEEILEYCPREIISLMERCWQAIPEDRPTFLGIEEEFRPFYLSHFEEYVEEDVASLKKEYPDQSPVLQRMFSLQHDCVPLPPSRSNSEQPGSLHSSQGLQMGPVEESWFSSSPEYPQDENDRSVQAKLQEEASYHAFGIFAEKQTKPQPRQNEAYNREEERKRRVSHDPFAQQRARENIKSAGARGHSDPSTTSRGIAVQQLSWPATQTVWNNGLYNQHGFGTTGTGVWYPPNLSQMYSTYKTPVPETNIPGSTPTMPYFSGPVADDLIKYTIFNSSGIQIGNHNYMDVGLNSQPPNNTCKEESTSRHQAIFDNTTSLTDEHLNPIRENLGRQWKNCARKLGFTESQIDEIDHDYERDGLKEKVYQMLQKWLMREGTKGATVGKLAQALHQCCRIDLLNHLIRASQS

binding (HA-HOIP (1-864)): no binding
binding (HA-HOIP (1-704)): no binding
binding (HA-Sharpin): no binding
binding (HA-HOIP (WT)): binds
B1: FLAG-PP6 (enzyme, UniProt Q9CQR6 1-305)
chain: MAPLDLDKYVEIARQCKYLPENDLKRLCDYVCDLLLEESNVQPVSTPVTVCGDIHGQFYDLCELFRTGGQVPDTNYIFMGDFVDRGYYSLETFTYLLALKAKWPDRITLLRGNHESRQITQVYGFYDECQTKYGNANAWRYCTKVFDMLTVAALIDEQILCVHGGLSPDIKTLDQIRTIERNQEIPHKGAFCDLVWSDPEDVDTWAISPRGAGWLFGAKVTNEFVHINNLKLICRAHQLVHEGYKFMFDEKLVTVWSAPNYCYRCGNIASIMVFKDVNTREPKLFRAVPDSERVIPPRTTTPYFL

binding [1]: binds
B2: Sharpin (protein, UniProt Q91WA6 1-380)
chain: MSPPAGGAAVAADPASPVVLLAVHAAVRPLGAGQDAEAQPRKLQLIADPERPGRFRLGLLGTEPGAVSLEWPLEAICYTVRGPNQHELQPPPGGPGTFSVHFLDPEEAQQWAALVRDATAEGQNGSGSPAPAPAPAMCPISPPCSSMAQIPKATQPEVDLPQSSGNFKKEELATRLSQAIAGGDEKAAAQVAAVLAQHHVALNVQLMEAWFPPGPIRLQVTVEDATSVLSSSSSAHVSLKIHPHCSIAALQDQVFSEFGFPPAVQRWVIGRCLCMPERSLASYGVSQDGDPAFLYLLSAPREVSGQSLQNSKMDRKLGLFPQSLGLPHDLQPSSSSLPSPSQPGWSCPSCTFINASNRPGCEMCSTQRPCAWDPLAAAST

The remaining lines, values behind:

B3: A20 (enzyme, UniProt Q60769 1-775)
chain: MAEQLLPQALYLSNMRKAVKIRERTPEDIFKPTNGIIYHFKTMHRYTLEMFRTCQFCPQFREIIHKALIDRSVQASLESQKKLNWCREVRKLVALKTNGDGNCLMHAACQYMWGVQDTDLVLRKALCSTLKETDTRNFKFRWQLESLKSQEFVETGLCYDTRNWNDEWDNLVKMASADTPAARSGLQYNSLEEIHIFVLSNILRRPIIVISDKMLRSLESGSNFAPLKVGGIYLPLHWPAQECYRYPIVLGYDSQHFVPLVTLKDSGPELRAVPLVNRDRGRFEDLKVHFLTDPENEMKEKLLKEYLIVMEIPVQGWDHGTTHLINAAKLDEANLPKEINLVDDYFELVQHEYKKWQENSDQARRAAHAQNPLEPSTPQLSLMDIKCETPNCPFFMSVNTQPLCHECSERRQKNQSKLPKLNSKLGPEGLPGVGLGSSNWSPEETAGGPHSAPPTAPSLFLFSETTAMKCRSPGCPFTLNVQHNGFCERCHARQINASHTADPGKCQACLQDVTRTFNGICSTCFKRTTAEPSSSLTSSIPASCHQRSKSDPSQLIQSLTPHSCHRTGNVSPSGCLSQAARTPGDRAGTSKCRKAGCMYFGTPENKGFCTLCFIEYRENKQSVTASEKAGSPAPRFQNNVPCLGRECGTLGSTMFEGYCQKCFIEAQNQRFHEARRTEEQLRSSQHRDMPRTTQVASRLKCARASCKNILACRSEELCMECQHLSQRVGSVAHRGEPTPEEPPKQRCRAPACDHFGNAKCNGYCNECYQFKQMYG
binding [1]: binds

B4: PPP6R3, a regulatory subunit of PP6 (protein, UniProt Q922D4 1-844)
chain: MFWKFDLHSSSHIDTLLEREDVTLKELMDEEDVLQECKAQNRKLIEFLLKAECLEDLVSFIIEEPPQDMDEKIRYKYPNISCELLTSDVSQMNDRLGEDESLLMKLYSFLLNESPLNPLLASFFSKVLSILISRKPEQIVDFLKKKRDFVDLIIKHIGTSAIMDLLLRLLTCIEPPQPRQDVLNWLNEERIIQRLVEIVHPSQEEDRHSNASQSLCEIVRLSRDQMLQVQNSTEPDPLLATLEKQEIIEQLLSNIFHKEKNESAIVSAIQILLTLLETRRPTFEGHIEICPPGMSHSACSVNKSVLEAIRGRLGSFHELLLEPPKKSVMKTTWGILDPPVGNTRLNVIRLISSLLQTNTSSINGDLMELNSIGVILDMFFKYTWNNFLHTQVEICIALILASPFENAENGTITDQDSTGDNLLLKHLFQKCQLIERILEAWDTNEKKQAEGGRRHGYMGHLTRIANCIVHSTDKGPNSALVQQLIKDLPDEVRERWETFCTNSLGETNKRNTVDLAFSDYQMQQMTSNFIDQFGFNDEKFADQDDIGNVSFDRVSDINFTLNTNESGNIALFEACCKERIQQFDDGGSDEEDIWEEKHIAFTPESQRRSSSGSTDSEESTDSEEEDGAKQDLFESSSANTEDKMEVDLNEPPTWSANFDVPMETTHGAPLDSVGSDVWSTEEPMPTKETGWASFSEFTSSLSTKESLRSNSPVEMETSTESVDPLTPGAAALATQPEAPGSMAMEASSDGEEDAESTDKVTETVMNGGMKETLSLTVDAKTETAVFKSEEEKLSTSQDAACKDAEETPEPAEAKCTAPLTPSSSPEQRTDQPSMPSDPSVNGPV
binding [2]: binds
